Data published in PMC4336329 (PLoS ONE, 2015).
Screen size: about 310,000 compounds; about 2,200 (0.71%) showed an effect of 50% or more. Effects have a minus sign here. Some of the results follow.

target: human ether-à-go-go-related gene (hERG) potassium channel (human, UniProt Q12809); assay: primary screen, population patch clamp on CHO cells stably expressing hERG
Sequence (Q12809 whole entry, looked up): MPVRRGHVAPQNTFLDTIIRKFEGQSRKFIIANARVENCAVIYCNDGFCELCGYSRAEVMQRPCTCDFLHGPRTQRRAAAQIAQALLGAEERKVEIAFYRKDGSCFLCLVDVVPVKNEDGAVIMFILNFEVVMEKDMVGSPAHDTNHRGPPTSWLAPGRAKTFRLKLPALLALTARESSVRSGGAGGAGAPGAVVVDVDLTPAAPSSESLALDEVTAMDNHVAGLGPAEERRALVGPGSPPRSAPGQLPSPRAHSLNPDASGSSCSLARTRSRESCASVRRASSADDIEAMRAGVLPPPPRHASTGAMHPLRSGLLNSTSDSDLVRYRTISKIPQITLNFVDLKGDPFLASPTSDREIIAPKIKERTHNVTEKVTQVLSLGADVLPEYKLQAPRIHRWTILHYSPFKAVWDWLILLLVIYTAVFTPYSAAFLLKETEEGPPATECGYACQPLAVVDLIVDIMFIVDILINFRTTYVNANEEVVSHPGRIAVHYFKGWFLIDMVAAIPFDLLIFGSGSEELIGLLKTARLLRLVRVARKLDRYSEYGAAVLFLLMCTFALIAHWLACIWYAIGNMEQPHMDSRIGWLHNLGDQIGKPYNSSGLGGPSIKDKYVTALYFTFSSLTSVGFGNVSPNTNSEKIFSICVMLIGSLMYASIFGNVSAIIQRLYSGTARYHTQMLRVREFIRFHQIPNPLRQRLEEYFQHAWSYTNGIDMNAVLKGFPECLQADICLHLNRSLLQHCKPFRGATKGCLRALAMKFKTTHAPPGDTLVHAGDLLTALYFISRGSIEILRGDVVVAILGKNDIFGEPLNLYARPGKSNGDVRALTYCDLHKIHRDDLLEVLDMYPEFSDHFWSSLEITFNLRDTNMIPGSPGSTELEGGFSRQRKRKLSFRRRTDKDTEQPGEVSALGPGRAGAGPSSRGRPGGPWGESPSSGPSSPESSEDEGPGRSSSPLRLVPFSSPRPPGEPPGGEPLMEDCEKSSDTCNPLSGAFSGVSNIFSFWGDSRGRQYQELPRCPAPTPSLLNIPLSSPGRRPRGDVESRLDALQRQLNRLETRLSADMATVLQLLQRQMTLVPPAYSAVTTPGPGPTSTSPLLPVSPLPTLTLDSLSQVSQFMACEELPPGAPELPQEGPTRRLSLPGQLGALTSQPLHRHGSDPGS

Row | SMILES | hERG current change (%, negative = inhibition) at 1uM [%]
1 | CC(=O)Nc1nc(-c2ccc3c(c2)CCN3C(=O)C2CC2)c(C)s1 | 7.72
2 | CCc1nccn1CCC(=O)N1CCCC(Nc2ccc(F)cc2)C1 (centres unmarked) | -2.46
3 | CC1(C)CC2CC(C)(CN2C(=S)Nc2ccccc2)C1 (centres unmarked) | 10.4
4 | CCN(CC(=O)Nc1ccccc1OC)CC(=O)Nc1ccccc1-c1ccccc1 | -4.49
5 | CCSc1nnc2n1C(C)(C)Cc1ccccc1-2 | 14.2
6 | COc1ccc(-c2nn(-c3ccccc3)cc2C(=O)N/N=C/c2ccc([N+](=O)[O-])o2)cc1 | -13.5
7 | COc1ccc(Cl)cc1C(=O)NCc1ccc2c(c1)OCO2 | 13
8 | O=C(COc1ccc(Cl)cc1)Nc1ccccc1C(=O)NCc1ccco1 | 13.2
9 | O=C(/C=C(\c1ccccc1)n1cncn1)c1ccccc1 | 14
10 | CCOC(=O)c1sc2nc(C)nc(Nc3ccc(OC)c(OC)c3)c2c1C | 16.7
11 | COc1cccc(-n2c(N)cc(=O)nc2SCC(=O)Nc2cc(C)on2)c1 | 0.81
12 | O=C(NC(=S)NNC(=O)c1ccccc1F)c1cccnc1 | 5.32
13 | COc1ccc(-c2nc(CSCC(=O)NCc3ccc4c(c3)OCO4)c(C)o2)cc1OC | -1.85
14 | O=C(N/N=C/C=C/c1ccccc1)NC1CCCCC1 | 14.8
15 | CCC1CCCCN1C(=O)c1nn2cccnc2c1Cl (centres unmarked) | 7.45
16 | O=C(CCCn1c(SCC(=O)NCC2CCCO2)nc2ccccc2c1=O)NCC1CCCO1 (centres unmarked) | -1.12
17 | COc1ccc(CC(=O)Nc2nc(-c3ccc(F)c(F)c3)cs2)cc1OC | 7.32
18 | Cc1ccc(S(=O)(=O)N(C)c2c(C)ccc(S(=O)(=O)N3CCN(C=O)CC3)c2C)cc1 | 1.14
19 | COC(=O)c1cc(S(=O)(=O)NCCCN2CCCC2=O)cn1C | 11
20 | CCOC(=O)c1c(C)[nH]c(C(=O)COC(=O)c2ccc(O)cc2O)c1C.CN(C)C=O | 10.5
21 | COC(=O)CSc1nccc(-c2ccc(F)cc2)c1C#N | 12.1
22 | Cc1cc(NC(=O)c2ccc([N+](=O)[O-])cc2Cl)no1 | 16.1

Row | SMILES | hERG current change (%, negative = inhibition) at 1uM [%]
23 | CCCCN(CCCC)CC(O)COc1ccccc1C(=O)Nc1ccccc1 (centres unmarked) | -55
24 | CCCCc1cn(C[C@H]2CC[C@@H]([C@@H]3CC[C@H](Cn4cc(CCCC)nn4)O3)O2)nn1 | -31.8
25 | O=C(c1cc2ccccc2oc1=O)N(c1ccc(Cl)cc1)C1C=CS(=O)(=O)C1 (centres unmarked) | 2.88
26 | Cc1cc(C(=O)OCC(=O)N2CC(=O)Nc3ccccc32)c(C)n1-c1ccc(F)cc1 | 6.7
27 | Cc1onc(C(=O)Nc2cccnc2Cl)c1[N+](=O)[O-] | 9.55
28 | CN(C)/C(CN1CCCCC1)=C1\N=C(c2ccccc2)OC1=O | 1.43
29 | COc1ccc(-c2nnc(SCC(=O)Nc3cc(C)on3)n2N)cc1OC | 17.1
30 | CN(C)/C=C(\C#N)S(=O)(=O)C(C)(C)C | 14.4
31 | CC1=Nc2cc([N+](=O)[O-])ccc2NC(C)(C)C1 | 0.171
32 | CC1=NN(C(N)=S)C(=O)C1N=Nc1ccc(Br)cc1 (centres unmarked) | 11.3
33 | O=C(O)C1Sc2[nH]c(=O)sc2C2c3cc(Br)ccc3OC(=O)C12 (centres unmarked) | 8.73
34 | COc1ccc(NC(=O)CN(c2cccc(F)c2)S(C)(=O)=O)cc1OC | 11.6
35 | CCN(CC)CCN1C(=O)c2oc3ccccc3c(=O)c2C1c1cccc(Br)c1 (centres unmarked) | -18
36 | CCCN(CCO)Cc1cccc(Br)c1 | 3.48
37 | COCCNC(=O)COC(=O)c1ccc(OCC(=O)Nc2ccccc2OC)c(OC)c1 | 9.82
38 | CCCCCCCN1C/C=C\C(c2ccc(OC)cc2)N(Cc2ccc(F)cc2)C(=O)[C@H]1Cc1ccccc1 (some centres unmarked) | 9.9
39 | O=P(Oc1ccccc1)(Oc1ccccc1)C(O)c1ccccc1 (centres unmarked) | 5.38
40 | O=C(CN1C(=O)/C(=C/c2ccccc2)SC1=S)NC1C=CS(=O)(=O)C1 (centres unmarked) | 10.3
41 | CCOC(=O)c1c(C)nc2sc(C(=O)Nc3ccc(OC)cc3)c(N)c2c1-c1ccc(OC)cc1 | 14
42 | CCOc1ncccc1C(=O)Nc1ncc(C)s1 | 10.7
43 | COc1cc(NC(=O)C2CCN(S(=O)(=O)c3ccc4[nH]c(=O)oc4c3)CC2)cc(OC)c1 | 12.7
44 | Cc1ccc(S(=O)(=O)N(CC(=O)N2CCOCC2)C2CCCCC2)cc1 | -9.79
